# Source: the supplement of paper PMC3334620
# Over roughly 33,000 sequences, “E-score (-0.5 to 0.5)” has its median near -0.011; the highest 2% begin near 0.28. Some of the results follow.
# Target: T1, Gcr1 (UniProt P07261)
# T1 sequence: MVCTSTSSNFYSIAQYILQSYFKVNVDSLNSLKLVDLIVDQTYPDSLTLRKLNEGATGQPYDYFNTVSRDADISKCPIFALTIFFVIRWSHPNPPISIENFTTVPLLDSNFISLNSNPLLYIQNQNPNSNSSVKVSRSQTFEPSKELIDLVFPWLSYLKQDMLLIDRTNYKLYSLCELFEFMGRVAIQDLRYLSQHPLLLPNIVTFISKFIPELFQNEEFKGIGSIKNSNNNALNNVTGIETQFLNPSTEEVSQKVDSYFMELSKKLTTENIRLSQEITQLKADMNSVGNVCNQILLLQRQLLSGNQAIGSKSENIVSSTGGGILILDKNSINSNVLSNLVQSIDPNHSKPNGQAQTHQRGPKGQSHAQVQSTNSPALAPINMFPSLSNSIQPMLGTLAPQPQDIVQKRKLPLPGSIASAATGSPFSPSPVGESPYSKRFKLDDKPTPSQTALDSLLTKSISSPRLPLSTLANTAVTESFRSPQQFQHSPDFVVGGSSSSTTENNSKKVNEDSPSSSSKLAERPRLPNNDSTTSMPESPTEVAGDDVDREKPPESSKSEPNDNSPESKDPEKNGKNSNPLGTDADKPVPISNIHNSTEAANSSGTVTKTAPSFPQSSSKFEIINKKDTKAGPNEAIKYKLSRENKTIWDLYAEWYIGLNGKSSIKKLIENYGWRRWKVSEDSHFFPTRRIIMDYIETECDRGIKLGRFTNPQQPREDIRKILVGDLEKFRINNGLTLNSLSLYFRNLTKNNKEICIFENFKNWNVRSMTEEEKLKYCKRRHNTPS
# Test: PBM E-score (8-mer binding enrichment) (E-score (-0.5 to 0.5)); higher = stronger / more preferred TF binding; most listed sequences are background and not binding sites
# Details: protein concentration: 100 nM; construct: GST-full length
# Summary of the method: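 Each ungapped eight-base word and its reverse complement, pooled, received an E-score from the Universal PBM Analysis Suite. Underlying scans, normalised with masliner, recorded fluorescent anti-GST bound to GST-tagged yeast transcription factors. These were applied at about 100-200 nM to universal all-10-mer Agilent arrays double-stranded by primer extension.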
row,Sequence,PBM E-score
1,ATAGACGA,0.248
2,GGGCCGTA,-0.21
3,AGGAGATA,-0.0392
4,GACCAGAC,-0.179
5,ACGCGGAG,-0.0537
6,CGGTCCCC,-0.00143
7,CGCTGTAG,0.0385
8,AACTCAGG,-0.0391
9,ATAGCAGG,0.0316
10,CGTCTTAG,-0.0362
11,AGGATTTG,-0.19
12,TGACGTAA,-0.155
13,CGCCTTGC,-0.0164
14,ACATGCCA,-0.0852
15,CCGCTCTC,-0.141
16,CTCGTCAG,-0.0444
17,ATAATGAA,0.237
18,ATTTAGGA,0.286
19,AAGAGTCC,0.115
20,CAGGCACC,0.245
21,GCCTCTGA,-0.0751
22,ACCCAGAA,0.149
23,AAATTAGG,0.228
24,AGGACTAC,-0.111
25,AATAATTC,0.107

row,Sequence,PBM E-score
1,ATCCCTGC,-0.0889
2,CATAAAAC,-0.00622
3,CCAGCTGA,-0.0822
4,TACAGCAA,0.0174
5,AACCCTTA,-0.0604
6,CGGGTTCC,0.411
7,AACTGAAC,0.0622
8,AGGAAGGA,-0.0785
9,GCTAGGCA,-0.109
10,ACACCTTC,-0.0029
11,ATTCGACA,-0.165
12,AGCCGCGG,-0.025
13,AGGACGGC,-0.141
14,GGGGGAGA,-0.233
15,CCGCCTGC,-0.0217
16,CCACTCAA,0.13
17,ATGTTGGG,0.119
18,CATGGCGA,-0.178
19,CTACCACA,0.126
20,ATATGACA,0.137
21,TAGAAACA,0.112
22,TCGAGTCA,-0.00551
23,GATATTGA,-0.0199
24,CACCAACA,0.0307
25,AGTGGCTC,0.218

row,Sequence,PBM E-score
1,CATCTGTA,0.0938
2,AAGAACTA,-0.0876
3,AGGTACAG,-0.0694
4,TCACAACA,-0.00323
5,GTCGCCAA,0.109
6,GAATTTAA,0.0974
7,CCGGCAGC,0.292
8,AGGCTCCG,0.0454
9,ATACACAA,-0.0947
10,AAACGGGG,0.111
11,GCTGTAAA,-0.109
12,ATCGCAGC,0.0295
13,CGTCTGGC,0.103
14,CTACGCAG,0.0122
15,ATCAAGGC,-0.162
16,CCGGGGTC,-0.198
17,ATGGCTGG,-0.226
18,ACATCCGT,-0.113
19,CACCAGCA,-0.0137
20,CTCAGCAC,0.00162
21,GATCACCA,-0.0057
22,ACGCAACA,0.12
23,CCTGGAAA,0.0979
24,CGGGTTGA,0.05
25,AAACGGCC,-0.0753

row,Sequence,PBM E-score
1,GTGATGCA,-0.129
2,GCTACCTA,0.207
3,GTTCCCTA,-0.0507
4,ACTACGAA,-0.0169
5,CCTTCGCA,-0.0622
6,TACGCGTA,0.239
7,GTGGAGAA,0.0248
8,AGTCCGCA,0.0295
9,CGTCCGTC,-0.127
10,AACGTCCG,0.035
11,GATCACTA,-0.0518
12,CGATAATA,-0.0596
13,TAAATTTA,0.239
14,TCTTGTCA,-0.00081
15,CACGATGC,0.273
16,AGTTTAGG,0.148
17,AACCATCT,0.0565
18,TAAAGCGA,0.0457
19,ATGGGTAC,0.189
20,ACAAAAGA,0.161
21,CTTCGTCC,-0.1
22,GAGCGGTA,0.0726
23,CATAGATC,-0.174
24,CGGAAAAC,-0.121
25,GCTGATAA,-0.015

row,Sequence,PBM E-score
1,GGACTACA,-0.189
2,CCCCTCGC,-0.0727
3,AATGCAGA,0.0129
4,CGTTCGAA,-0.208
5,ATTCGTCG,0.0418
6,ATTACAAT,-0.00128
7,CGCATGAG,-0.236
8,AACGTATA,0.0713
9,AAACTACG,-0.00816
10,AACTAAAA,0.145
11,CACTCCCA,-0.00658
12,TGGTGTAA,-0.106
13,ATAGTAGC,0.286
14,ATTTCTCC,0.0503
15,AACTTTCT,-0.0828
16,CGTGGCCA,-0.274
17,CCATTTTA,0.23
18,GGAAGGCA,0.0904
19,AATGCGCC,-0.0609
20,GTGTGACA,-0.168
21,CGGATCGC,-0.0306
22,GGACGGCA,0.0408
23,ATCAGGAC,0.101
24,AGGTTTCG,-0.0991
25,CTGACAAC,0.209

row,Sequence,PBM E-score
1,AGTATGGC,0.0308
2,GGAGCACC,0.0936
3,ATCGAGTG,-0.0784
4,ACTTGCCG,-0.176
5,AAGCTGAA,0.129
6,CGACCACG,-0.0758
7,CTGCAGCC,-0.167
8,ACGGCTTC,0.238
9,GAGAATGA,-0.0541
10,GTTGATAA,0.12
11,GGCCTCCA,0.172
12,AAGGTGCC,0.144
13,ATCGCCGC,0.136
14,GTCCGCGA,-0.0691
15,CGATGAAG,-0.0585
16,ATCTTCCG,-0.0893
17,ACCGATCT,-0.0886
18,AAGCATCG,0.0291
19,AGACGAAT,0.0336
20,GCCCCCGA,-0.0188
21,ATTTCTTA,0.12
22,ACTGTTGG,-0.0983
23,TAATAGCA,0.0558
24,ATACAAAT,0.118
25,CGTAAACG,-0.0302

row,Sequence,PBM E-score
1,CTTGGGAC,-0.187
2,ATAGCACA,-0.11
3,ACGGTTAC,0.0551
4,AGGTGTAT,0.00166
5,ATGATATA,-0.0438
6,CTACTCCC,-0.0747
7,ATTTAGTG,0.202
8,CCTTAACA,-0.0631
9,AGGGGATA,0.00288
10,CCGCAATC,0.00513
11,AGAGTCTC,-0.132
12,CCGACAGC,-0.308
13,ATACGAAG,0.293
14,AAATAAAC,0.0476
15,CGGGTTGC,0.0657
16,GACCGCCC,-0.0967
17,ACCGTTTC,0.166
18,CTACCGTA,-0.0889
19,AAGTCTGT,-0.321
20,CAGCGCTG,-0.245
21,CCGTAGGA,-0.0831
22,AAACAGGA,0.363
23,GCCAACGC,-0.0929
24,GATCAATC,-0.0368
25,CTAACCAG,0.0668

row,Sequence,PBM E-score
1,CAAATATG,0.0833
2,AAGACGAA,0.131
3,ATCTCTCC,-0.112
4,TAATGCAA,-0.0298
5,CTACTAGA,0.0802
6,CCCTTTAG,-0.172
7,AGTTGGAG,0.184
8,CCACTAAA,0.314
9,ACAACGCA,-0.169
10,ACCCATTG,-0.0358
11,ACGTTGCC,0.24
12,GCAACCAC,0.267
13,GAACTGAC,-0.11
14,CTGGTCTC,0.0542
15,GATTGGAC,0.0723
16,ATCCGTCG,-0.0346
17,TAATCCCA,0.133
18,CCTAGAAC,0.00071
19,CCTATCTA,-0.0661
20,ATGGAATA,0.0994
21,AAAACCAG,0.146
22,AATACCCC,-0.119
23,CGCCTCAG,-0.185
24,ATTTGATC,0.0352
25,CAACGCGC,0.122

row,Sequence,PBM E-score
1,ACGGTGAT,-0.134
2,AGCAACAA,0.0591
3,ACAGAGCA,0.0958
4,ACTCATTA,0.0625
5,GTCCTCGA,-0.0784
6,ATATTGCG,0.0339
7,AATATCTC,-0.0376
8,ACTAGGCA,0.0179
9,GTCCGGAA,0.106
10,TGCAGTAA,0.00947
11,ACCGTGGG,-0.00593
12,CATCGTGG,0.0334
13,ATTTTGCC,-0.00703
14,ATTGGGTG,0.085
15,ACAGAGAT,0.0182
16,CACGCACG,0.0016
17,AATGTAGC,0.0261
18,ACATACTC,-0.169
19,ACGGCAGC,0.101
